# From PubChem BioAssay (Tox21)
# Inconclusive results, whose numbers are uncertain, are shown with a selection of clear calls. For some of these results: Where the call is inconclusive, the potency comes from a doubtful curve fit. Activity calls are given as the source filed them. Unless noted, the call rests on the fitted dose curve; in most records, active means well fitted curve in the direction sought with a large enough effect in the repeat runs; inconclusive means weak or mixed curves; inactive means no such curve, though single readings can be large; an effect the other way counts as inactive or inconclusive.
# Columns and labels:
# [1] = qHTS assay for identifying genotoxic compounds that show differential cytotoxicity against isogenic chicken DT40 cell lines with known DNA damage response pathways - wild type cell line (AID 743012); conditions: DT40 wild type chicken cells viability, CellTiter-Glo, 40 h; activity change, negative = cytotoxicity: at 68.4 µM (top of the series) unless noted; further: potency means the concentration at half of the fitted maximal effect; nearly all actives have a fitted effect of over 60% in size
# Outline: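 Viability of DNA repair-proficient chicken DT40 cells was assessed by CellTiter-Glo luminescence following 40 h compound exposure at 37 C/5% CO2.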
# [2] = qHTS assay for identifying genotoxic compounds that show differential cytotoxicity against isogenic chicken DT40 cell lines with known DNA damage response pathways - Rad54/Ku70 mutant cell line (AID 743015); conditions: DT40 Rad54/Ku70 mutant viability, CellTiter-Glo, 40 h; activity change, negative = cytotoxicity: at 66.8 µM (top of the series); further: potency means the concentration at half of the fitted maximal effect; nearly all actives have a fitted effect of over 60% in size
# [3] = qHTS assay to identify small molecule antagonists of the androgen receptor (AR) signaling pathway using the MDA cell line - cell viability counter screen (AID 743041; further: potency means the concentration at half of the fitted maximal effect; nearly all actives have a fitted effect of over 45% in size); conditions: MDA-kb2 viability, CellTiter-Fluor, 16 h, cells co-treated with R1881 androgen agonist; viability change, negative = cytotoxic: at 70.3 µM (top of the series) unless noted
# Outline: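 In this qHTS counter assay, fluorescence intensity after CellTiter-Fluor addition indicated viability of MDA-kb2 AR-luc cells given compounds and R1881 for 16 h at 37C.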
# [4] = qHTS assay to identify small molecule antagonists of the thyroid receptor (TR) signaling pathway - cell viability counter screen (AID 743064); conditions: GH3.TRE-Luc viability, CellTiter-Fluor, 24 h; activity change, negative = cytotoxic: at 70.3 µM (top of the series) unless noted; further: nearly all actives have a fitted effect of over 50% in size; further: potency means the concentration at half of the fitted maximal effect
# Outline: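 Rat GH3 pituitary tumor cells stably expressing two TR response elements driving luciferase were plated, rested 4 h, then dosed with library compounds and T3 (1 nM final). After 23.5 h at 37 °C, CellTiter-Fluor was added for 30 min and fluorescence recorded.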
# [5] = qHTS assay to identify small molecule antagonists of the estrogen receptor alpha (ER-alpha) signaling pathway - cell viability counter screen (AID 743074; calls by dose curve;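 further: HEK293 cells carrying ER-alpha-UAS-bla reporter stimulated with 17beta-estradiol; nearly all actives have a fitted effect of over 45% in size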; further: potency means the concentration at half of the fitted maximal effect); conditions: ERalpha-bla HEK293 viability, CellTiter-Glo luminescence, 18 h; series mostly up to 69.4 µM
# [6] = qHTS assay to identify small molecule antagonists of the estrogen receptor alpha (ER-alpha) signaling pathway using the BG1 cell line - cell viability counter screen (AID 743081); conditions: BG1Luc4E2 viability, CellTiter-Fluor, 22 h; activity change, negative = cytotoxicity: at 70.3 µM (top of the series) unless noted;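 further: compound given together with 17beta-estradiol as the ER stimulus; nearly all actives have a fitted effect of over 45% in size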; further: potency means the concentration at half of the fitted maximal effect
# [7] = biological target: Estrogen receptor (Homo sapiens) (UniProt P03372); assay: qHTS assay to identify small molecule antagonists of the estrogen receptor alpha (ER-alpha) signaling pathway (AID 743069; active means well fitted curve in the direction sought with a large enough effect in the signal ratio in the repeat runs, not every such curve was filed as active; inconclusive means weak or mixed curves, or effect the other way; inactive means no such curve, though single readings can be large or run the other way; the % refers to the signal ratio; further: potency means the concentration at half of the fitted maximal effect; on activity, negative = inhibition: on the % scale 0 is the no-effect control and ±100 the full control effect); conditions: HEK293 ER-alpha-UAS-bla, beta-lactamase ratio, antagonist mode; activity, negative = inhibition: at 69.4 µM (top of the series) unless noted
# Outline: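 A 17beta-estradiol challenge was applied right after compound transfer to ER-alpha-UAS-bla HEK293 cells previously kept in charcoal-stripped serum. Plates stood 18 hr at 37C and 5% CO2; fluorescence was read following 2 hr FRET substrate loading at room temperature.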
# [8] = qHTS assay to identify small molecule antagonists of the estrogen receptor alpha (ER-alpha) signaling pathway using the BG1 cell line (AID 743080; calls by dose curve;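 further: BG1 cells stimulated with 17beta-estradiol alongside compound; nearly all actives have a fitted effect of over 25% in size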; further: potency means the concentration at half of the fitted maximal effect; on activity change, negative = inhibition: on the % scale 0 is the no-effect control and ±100 the full control effect); conditions: BG1Luc4E2 ERE-luciferase antagonist mode, luminescence; activity change, negative = inhibition: at 70.3 µM (top of the series) unless noted
# Outline: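 BG1-Luc-4E2 cells (endogenous full-length ER-alpha, stable 4×ERE-luciferase) were starved 5 days in phenol-red-free medium with 10% charcoal-stripped FBS, plated 24 h, then given compound plus 17beta-estradiol for 21.5 h at 37 C; ONE-Glo luminescence read after 30 min.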
# [9] = biological target: Aromatase (Homo sapiens) (UniProt P11511); assay: qHTS assay to identify aromatase inhibitors (AID 743083); conditions: MCF-7 aro ERE, testosterone-driven ERE luciferase, 24 h; activity, negative = inhibition: at 70.3 µM (top of the series); further: nearly all actives have a fitted effect of over 55% in size; further: potency means the concentration at half of the fitted maximal effect; on activity, negative = inhibition: on the % scale 0 is the no-effect control and ±100 the full control effect
# [10] = biological target: Androgen receptor (Homo sapiens) (UniProt P10275); assay: qHTS assay to identify small molecule antagonists of the androgen receptor (AR) signaling pathway (AID 743035; active means well fitted inhibition curve with a large enough effect in the signal ratio in the repeat runs, not every such curve was filed as active; inconclusive means weak or mixed curves, or effect the other way; inactive means no such curve, though single readings can be large or run the other way; the % refers to the signal ratio; further: potency means the concentration at half of the fitted maximal effect); conditions: HEK293 AR-UAS-bla, R1881-stimulated, beta-lactamase FRET, 16 h; activity change, negative = inhibition: at 58.5 µM (top of the series) unless noted
# Outline: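 Reporter HEK293 cells were exposed to compounds and R1881 overnight (16 h, 37C); beta-lactamase activity was then quantified by FRET fluorescence.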
# [11] = biological target: Androgen receptor (Homo sapiens) (UniProt P10275); assay: qHTS assay to identify small molecule agonists of the androgen receptor (AR) signaling pathway (AID 743036; active means well fitted activation curve with a large enough effect in the signal ratio in the repeat runs, with a control signal flat, not every such curve was filed as active; inconclusive means weak or mixed curves, or effect the other way; inactive means no such curve, though single readings can be large or run the other way; the % refers to the signal ratio; further: potency means the concentration at half of the fitted maximal effect); conditions: HEK293 AR-UAS-bla GripTite, beta-lactamase FRET ratio, 16 h; activation: at 62.4 µM (top of the series) unless noted
# Outline: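 Quantitative HTS of the Tox21 10K library in HEK293 cells bearing a stably integrated UAS-controlled beta-lactamase reporter. Compound exposure lasted 16 h at 37C. Reporter activity was detected by FRET substrate fluorescence after 2 h at room temperature.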
# [12] = biological target: Androgen receptor (Homo sapiens) (UniProt P10275); assay: qHTS assay to identify small molecule agonists of the androgen receptor (AR) signaling pathway using the MDA cell line (AID 743040; further: potency means the concentration at half of the fitted maximal effect; nearly all actives have a fitted effect of over 20% in size); conditions: MDA-kb2 AR-luc cells, MMTV luciferase, 16 h; activity change: at 70.3 µM (top of the series), hits give high values
# Outline: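 Cell-based luciferase reporter: MDA-kb2, MMTV promoter (AR + GR response elements). 16 h compound exposure at 37C; ONE-Glo, 30 min RT, luminescence.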
# [13] = qHTS assay to identify small molecule antagonists of the thyroid receptor (TR) signaling pathway (AID 743065); conditions: GH3.TRE-Luc, T3-stimulated luciferase inhibition, 23.5 h; series mostly up to 70.3 µM; further: potency means the concentration at half of the fitted maximal effect; nearly all actives have a fitted effect of over 55% in size
# Outline: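 GH3.TRE-Luc rat pituitary cells carrying two TR response elements driving luciferase were plated for 4 h, given compound plus 1 nM T3 (final), and incubated 23.5 h at 37 C. ONE-Glo luminescence measured reporter inhibition; CellTiter-Fluor fluorescence tracked cytotoxicity.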
# [14] = biological target: Estrogen receptor (Homo sapiens) (UniProt P03372); assay: qHTS assay to identify small molecule agonists of the estrogen receptor alpha (ER-alpha) signaling pathway using the BG1 cell line (AID 743079); conditions: BG1Luc4E2 cells, ERE-luciferase agonist, 22 h; activation: at 70.3 µM (top of the series) unless noted; further: potency means the concentration at half of the fitted maximal effect; nearly all actives have a fitted effect of over 20% in size
# [15] = qHTS assay to identify small molecule antagonists of the androgen receptor (AR) signaling pathway - cell viability counter screen (AID 743033; further: potency means the concentration at half of the fitted maximal effect; nearly all actives have a fitted effect of over 45% in size); conditions: AR-bla HEK293 viability, CellTiter-Glo luminescence, 16 h; activity change, negative = cytotoxicity: at 58.5 µM (top of the series) unless noted
# [16] = system: thyroid hormone receptor (rat, GH3 cells); assay: qHTS assay to identify small molecule agonists of the thyroid receptor (TR) signaling pathway (AID 743066; calls by dose curve; further: on the % scale 0 is the no-effect control and ±100 the full control effect); conditions: GH3.TRE-Luc cells, TR agonist luciferase, 24 h; activation: at 83.9 µM (top of the series) unless noted
# Tags describe the fitted curve by direction and shape or compound fluorescence and quenching.
# Sequence of UniProt P10275 (P10275 whole entry, looked up): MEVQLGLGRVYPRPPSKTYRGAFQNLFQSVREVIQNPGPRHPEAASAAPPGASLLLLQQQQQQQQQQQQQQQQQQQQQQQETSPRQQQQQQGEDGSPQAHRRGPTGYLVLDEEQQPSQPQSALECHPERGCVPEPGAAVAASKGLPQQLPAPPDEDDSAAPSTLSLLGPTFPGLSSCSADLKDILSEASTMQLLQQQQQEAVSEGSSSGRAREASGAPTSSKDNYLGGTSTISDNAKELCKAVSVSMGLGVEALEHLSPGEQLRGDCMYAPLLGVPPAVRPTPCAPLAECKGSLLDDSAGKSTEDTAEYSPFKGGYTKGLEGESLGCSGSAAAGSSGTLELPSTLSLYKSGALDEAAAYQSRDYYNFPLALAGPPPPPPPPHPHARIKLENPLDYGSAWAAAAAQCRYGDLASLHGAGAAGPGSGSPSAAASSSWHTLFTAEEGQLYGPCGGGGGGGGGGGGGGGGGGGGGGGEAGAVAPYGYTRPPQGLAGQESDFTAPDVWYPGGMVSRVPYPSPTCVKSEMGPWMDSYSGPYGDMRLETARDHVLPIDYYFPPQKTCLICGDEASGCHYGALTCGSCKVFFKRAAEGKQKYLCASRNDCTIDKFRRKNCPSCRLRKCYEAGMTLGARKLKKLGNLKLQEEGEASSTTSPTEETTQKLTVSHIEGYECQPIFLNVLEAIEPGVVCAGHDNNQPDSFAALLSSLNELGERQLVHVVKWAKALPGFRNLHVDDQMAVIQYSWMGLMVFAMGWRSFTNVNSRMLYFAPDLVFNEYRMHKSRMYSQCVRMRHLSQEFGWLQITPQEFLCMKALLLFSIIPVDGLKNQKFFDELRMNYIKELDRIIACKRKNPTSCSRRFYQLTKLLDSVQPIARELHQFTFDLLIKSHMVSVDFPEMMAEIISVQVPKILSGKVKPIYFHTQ
# Sequence of UniProt P11511 (P11511 whole entry, looked up): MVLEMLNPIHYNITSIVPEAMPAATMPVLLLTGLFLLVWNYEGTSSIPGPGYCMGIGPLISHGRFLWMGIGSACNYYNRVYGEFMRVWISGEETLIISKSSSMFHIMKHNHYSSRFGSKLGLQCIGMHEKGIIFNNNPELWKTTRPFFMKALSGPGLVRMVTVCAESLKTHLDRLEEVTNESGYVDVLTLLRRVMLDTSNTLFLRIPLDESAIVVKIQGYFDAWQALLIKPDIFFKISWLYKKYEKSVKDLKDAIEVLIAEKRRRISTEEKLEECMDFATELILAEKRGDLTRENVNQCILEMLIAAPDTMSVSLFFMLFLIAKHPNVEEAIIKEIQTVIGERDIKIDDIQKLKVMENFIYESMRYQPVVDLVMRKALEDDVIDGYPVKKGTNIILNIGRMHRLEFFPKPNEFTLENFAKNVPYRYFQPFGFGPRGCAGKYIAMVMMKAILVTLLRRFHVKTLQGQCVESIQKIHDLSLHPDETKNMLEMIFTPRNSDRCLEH
# Sequence of UniProt P03372 (P03372 whole entry, looked up): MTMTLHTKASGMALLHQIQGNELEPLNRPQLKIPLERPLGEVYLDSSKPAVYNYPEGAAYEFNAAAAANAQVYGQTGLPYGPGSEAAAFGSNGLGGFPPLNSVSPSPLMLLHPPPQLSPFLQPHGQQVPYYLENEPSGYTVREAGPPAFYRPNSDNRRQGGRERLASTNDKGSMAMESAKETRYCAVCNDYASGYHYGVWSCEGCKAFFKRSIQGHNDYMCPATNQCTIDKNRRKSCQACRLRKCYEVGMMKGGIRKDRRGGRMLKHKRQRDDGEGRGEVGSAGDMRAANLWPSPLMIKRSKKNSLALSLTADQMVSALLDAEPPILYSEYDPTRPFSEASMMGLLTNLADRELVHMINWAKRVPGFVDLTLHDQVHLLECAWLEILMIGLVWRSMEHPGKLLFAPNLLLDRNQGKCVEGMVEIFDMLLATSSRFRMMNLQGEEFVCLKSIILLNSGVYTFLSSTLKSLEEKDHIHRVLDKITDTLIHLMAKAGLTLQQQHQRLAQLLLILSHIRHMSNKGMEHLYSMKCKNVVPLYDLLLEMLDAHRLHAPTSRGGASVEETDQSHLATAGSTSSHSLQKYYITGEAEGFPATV
smiles,measurement,setting,value
Cc1cc(=O)oc2cc(N(C)C)ccc12,Potency,[1],"inconclusive: 68.6 µM [cytotoxic, single point]"
same,Potency,[2],"inconclusive: 68.6 µM [cytotoxic, single point]"
same,Potency,[3],"inconclusive: 68.6 µM [rising, single point]"
same,Potency,[4],"inconclusive: 54.5 µM [rising, partial curve]"
same,Potency,[5],inactive
same,Potency,[6],"inconclusive: 61.1 µM [rising, partial curve]"
c1cc(-c2ccncc2)ccn1,Potency,[1],"inconclusive: 38.9 µM [rising, partial curve, poor fit]"
same,Potency,[2],"inconclusive: 61.6 µM [rising, partial curve, poor fit]"
same,Potency,[4],"inconclusive: 6.86 µM [rising, single point]"
same,Potency,[7],"inconclusive: 49 µM [activator, partial curve]"
same,Potency,[8],"inconclusive: 61.1 µM [falling, partial curve, poor fit]"
same,"activity change, negative = inhibition",[8],inconclusive: -25.9% [at 95 µM]
same,Potency,[9],inactive
CCCCOC(=O)CCC(C)=O,Potency,[1],"inconclusive: 68.6 µM [cytotoxic, single point]"
same,Potency,[2],"inconclusive: 68.6 µM [cytotoxic, single point]"
same,Potency,[7],inactive
CNc1ccc([N+](=O)[O-])cc1,Potency,[1],"inconclusive: 68.7 µM [cytotoxic, single point]"
same,Potency,[2],active: 68.7 µM
same,Potency,[10],inactive
same,Potency,[11],inconclusive: 0.491 µM
same,Potency,[12],"inconclusive: 0.244 µM [activator, full curve]"
same,Potency,[3],"inconclusive: 54.6 µM [cytotoxic, partial curve]"
same,"activity change, negative = cytotoxic",[4],inconclusive: -42.1% [cytotoxic]
same,Potency,[13],active: 27.4 µM
same,Potency,[14],active: 34.4 µM
same,Potency,[6],active: 48.7 µM
Cc1c(Cl)cccc1Nc1ccccc1C(=O)O,Potency,[1],inconclusive: 33.5 µM [cytotoxic]
same,Potency,[2],"inconclusive: 33.5 µM [cytotoxic, single point]"
same,Potency,[15],"inconclusive: 1.9 µM [cytotoxic, full curve]"
same,Potency,[4],"inconclusive: 18.8 µM [cytotoxic, partial curve]"
same,activation,[16],inconclusive: -8.29% [phenotype inactive]
same,Potency,[7],"inconclusive: 9.52 µM [fluorescent, full curve]"
Cc1cc(C(C)(C)C)c(O)c(C)c1CC1=NCCN1,Potency,[1],inconclusive: 33.5 µM [cytotoxic]
same,Potency,[2],"inconclusive: 33.5 µM [cytotoxic, partial curve, poor fit]"
same,Potency,[15],"inconclusive: 0.0048 µM [cytotoxic, full curve, poor fit]"
same,Potency,[5],inactive
CCn1nc(C)c2c1C(=O)NCC(c1ccc(O)cc1)=N2,Potency,[1],active: 61.1 µM
same,Potency,[2],"inconclusive: 77 µM [cytotoxic, single point]"
same,Potency,[4],inactive
same,Potency,[7],"inconclusive: 0.245 µM [activator, full curve]"
CC1(C)CCC[C@]2(C)[C@H]3CC(=O)O[C@]3(C)CC[C@@H]12,Potency,[1],"inconclusive: 68.6 µM [cytotoxic, single point]"
same,Potency,[2],"inconclusive: 68.6 µM [cytotoxic, single point]"
same,Potency,[15],"inconclusive: 49 µM [cytotoxic, partial curve]"
same,Potency,[7],inconclusive: 15.5 µM [activator]
same,Potency,[6],inactive
same,Potency,[9],"inconclusive: 61.1 µM [inhibitor, partial curve, poor fit]"
CCCCCCOc1ccc(O)cc1,Potency,[1],active: 6.11 µM
same,Potency,[15],"inconclusive: 54.9 µM [cytotoxic, single point]"
same,Potency,[10],active: 24.5 µM
same,Potency,[11],"inconclusive: 34.7 µM [falling, partial curve, poor fit]"
same,Potency,[4],active: 12.2 µM
same,Potency,[7],"inconclusive: 38.9 µM [rising, partial curve, poor fit]"
same,Potency,[5],"inconclusive: 19.5 µM [rising, partial curve]"
same,Potency,[8],"inconclusive: 19.3 µM [rising, partial curve]"
same,Potency,[9],"inconclusive: 61.1 µM [inhibitor, single point]"
Clc1ccccc1-c1nc(-c2ccncc2)no1,Potency,[1],"inconclusive: 33.5 µM [cytotoxic, single point]"
same,Potency,[2],"inconclusive: 33.5 µM [cytotoxic, single point]"
same,Potency,[4],"inconclusive: 5.96 µM [rising, partial curve, poor fit]"
C=CC(C)(C)C,Potency,[1],"inconclusive: 0.252 µM [rising, full curve, poor fit]"
same,Potency,[2],"inconclusive: 77 µM [cytotoxic, partial curve, poor fit]"
same,Potency,[4],"inconclusive: 0.224 µM [rising, full curve, poor fit]"
